Experimental data from paper PMC10320511.
No constants are given. Whether binding was seen depends on the method and setting. Binding seen in cells or lysates may run through a third protein. Some entries that bind do so weakly or less than the wild type. Where a sequence is shown, tags or fusion partners need not be part of it.

Amino acid sequences for entries named in this document (tags omitted).
UniProt Q01371: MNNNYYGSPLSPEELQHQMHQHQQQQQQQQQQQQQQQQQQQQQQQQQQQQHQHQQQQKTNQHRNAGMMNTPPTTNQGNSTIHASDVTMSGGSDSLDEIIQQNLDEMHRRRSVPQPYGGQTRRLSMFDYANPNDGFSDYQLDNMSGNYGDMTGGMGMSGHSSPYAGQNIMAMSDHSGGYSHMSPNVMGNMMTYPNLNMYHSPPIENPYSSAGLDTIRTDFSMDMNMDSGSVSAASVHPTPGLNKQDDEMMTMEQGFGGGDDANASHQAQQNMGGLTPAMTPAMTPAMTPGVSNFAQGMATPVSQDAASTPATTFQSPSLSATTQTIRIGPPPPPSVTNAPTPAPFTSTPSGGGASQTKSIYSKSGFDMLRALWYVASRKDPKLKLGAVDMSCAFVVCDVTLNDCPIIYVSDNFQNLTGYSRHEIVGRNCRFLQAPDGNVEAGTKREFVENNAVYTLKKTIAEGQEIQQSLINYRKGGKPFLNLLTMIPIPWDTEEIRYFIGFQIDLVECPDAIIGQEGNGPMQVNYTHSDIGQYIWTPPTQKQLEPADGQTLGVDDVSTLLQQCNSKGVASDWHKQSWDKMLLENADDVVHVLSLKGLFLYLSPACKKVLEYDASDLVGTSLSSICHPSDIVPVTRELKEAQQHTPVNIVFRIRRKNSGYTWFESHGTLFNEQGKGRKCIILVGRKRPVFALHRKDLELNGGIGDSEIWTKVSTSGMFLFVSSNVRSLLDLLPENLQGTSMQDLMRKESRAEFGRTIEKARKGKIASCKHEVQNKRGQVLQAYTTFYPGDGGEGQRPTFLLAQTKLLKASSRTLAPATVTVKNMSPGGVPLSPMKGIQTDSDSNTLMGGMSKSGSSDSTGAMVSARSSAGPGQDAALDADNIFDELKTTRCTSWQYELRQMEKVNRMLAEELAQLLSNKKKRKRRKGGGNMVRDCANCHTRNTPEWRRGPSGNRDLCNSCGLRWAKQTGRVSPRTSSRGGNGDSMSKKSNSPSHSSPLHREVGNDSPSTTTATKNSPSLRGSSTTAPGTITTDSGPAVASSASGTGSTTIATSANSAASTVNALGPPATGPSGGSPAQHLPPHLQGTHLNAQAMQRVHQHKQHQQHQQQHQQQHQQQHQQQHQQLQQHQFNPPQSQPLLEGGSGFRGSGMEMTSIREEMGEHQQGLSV

Key:
[1] = target: White Collar-1 tagged with V5 (WC-1^V5) (Neurospora crassa) (UniProt Q01371); assay: co-IP; WC-1^V5 pulled down with V5 resin from Neurospora lysate; NaCl in lysis and wash buffers raised to 500 or 1000 mM; Western blot
[2] = target: White Collar-1 tagged with V5 (WC-1^V5) (Neurospora crassa) (UniProt Q01371); assay: co-IP; WC-1^V5 pulled down with V5 resin from Neurospora lysate (light, 25 °C, 24 h); 137 mM NaCl in lysis and wash buffers; Western blot with WC-1, WC-2, FRQ and FRH antibodies

binding [2]: binds
B1: FREQUENCY (FRQ), untagged, in the WC-1^V5 strain (protein, UniProt P19970 1-989)
chain: MADSGDKSQGMRPPPFDSRGHPLPRRASPDKSITLENHRLARDTSSRVTSSSALGVTESQPQLKSSPTRRNSSGESEPTNWFNQSNRNPAAAFHDESHIMEVDPPFYQKETDSSNEESRYPPGRNPVHPPGGVQLPGFRPVAAHSSAADDYRSVIDDLTVENKRLKEELKRYKQFGSDVMRKEKLFEIKVHGLPRRKKRELEATLRDFAASLGDSSESTSQRRKTGRHGTAVHSSGVSLSKHDSSSSSRSRPVDSAYNSMSTGRSSHAPHSSGPSLGRPSLTRAKSVGTQKVENYLRDTPDGLLPHHIVMTDKEKKKLVVRRLEQLFTGKISGRNMQRNQSMPSMDAPLAPEGTNMAPPRPPPEGLREACIQLQDGDNPRKNRSSKDNGSASNSGGDQTELGGTGTGSGDGSGSGGRTGNNTSPPGAIAPDQRPTRPRDLDPDRVQIPSENMDYIRHLGLVSPEFLQGSRTSYQDVAPDAEGWVYLNLLCNLAQLHMVNVTPSFIRQAVSEKSTKFQLSADGRKIRWRGGTDGTKFSSDSSEDKSQQSPMTEDTEDGSDKNGRRKKRKTQQASSEIGRFGPSRSPSDTFHYKPMFVHRNSSSIETSLEESMSQGSEDAVDESNMGNSKWDFSGSGTTQQRRKRRYDGAIVYYTGAPFCTDLSGDPGDMSPTAQMTAGREVEGSGSGDEVEHVLQRTLSGSSLPIRPLSDDRARVAEVLDFDPGNPPELVADDGSSPNDEDFVFPWCEDPAKVRIQPIAKEVMEPSGLGGVLPDDHFVMLVTTRRVVRPILQRQLSRSTTSEDTAEFIAERLAAIRTSSPLPPRSHRLTVAPLQVEYVSGQFRRLNPAPLPPPAIFYPPFSTDSSWDDGDDLASDDEEVEEVEEDSYSEGQISRRANPHFSDNNTYMRKDDLAFDTETDVRMDSDDNRLSDSGHNMRAMMPRAEAVDGDDSPLAAVTGKEVDMLHTGSSVATAGGAESGYSSSMEDVSSS
binding [1]: no binding (condition: with 500 mM or 1000 mM NaCl)
